Several values for one entry are separate records, joined by “and”; a condition that tells them apart may be missing. Equal values may be shown once. In all, about 150,000 compounds went through this assay and about 540 (0.36%) showed an effect of 50% or more. The list shows a part of the results.
Tested on: Plasmodium falciparum
Experiment: Primary screen in NF54 nanoGlo assay, in single point, at 2uM, 72h; a lower Z score goes with more inhibition
Assay type: functional, Erythrocyte
Settings: timepoint 72 hour

Row | Compound | % Inhibition [%] | Z score | % Inhibition (2 µM) | Z score (2 µM)
1 | COc1cccc(O)c1S(=O)(=O)N1CCC[C@H](c2nnc[nH]2)C1 | 11 | -1.45 | – | –
2 | Cc1cc(NC(=O)CN[C@@H](C)c2cccc(Cl)c2Cl)n(C)n1 | -8 | 1.04 | – | –
3 | Cc1nc2c(N3CCC4(CC3)N=C(N)NC4=O)ncnc2o1 | -1 | 0.13 | – | –
4 | Cc1ccc(C(=O)NCC(C)(C)N2CCOCC2)nc1C | -1 | 0.15 | – | –
5 | CC(C)c1ccc2c(c1)[C@@H](NC1CCN(CC(N)=O)CC1)CCC2 | -5 | 0.78 | – | –
6 | O=C(Cc1cn(-c2ccccc2)nc1-c1ccc(Cl)cc1)OCc1c(F)cccc1Cl | -12 | 1.89 | – | –
7 | Cc1ccc2cccc(C(=O)N3CCC(N4CCC(Oc5nccs5)CC4)CC3)c2n1 | -14 | 1.76 | – | –
8 | CC(C)c1ccc(NC(=O)CCCC(=O)N2CCN(c3ccccn3)CC2)cc1 | -6 | 0.92 | – | –
9 | Cc1noc(C)c1CN(C)C(=O)NCc1nc2c(C)cccc2o1 | -8 | 1.14 | – | –
10 | O=C(NCC1CCCO1)C1CCCc2ccccc21 (stereo unspecified) | -2 | 0.28 | – | –
11 | NC(=O)c1c(NC(=O)CN2CCC[C@H]2c2cccs2)sc2c1CCCC2 | -5 | 0.99 | – | –
12 | COc1ccc(CCNC(=O)c2cc(-c3ccc4ccccc4c3)on2)cc1OC | -9 | 0.76 | – | –
13 | COc1ccc(F)c(CN2CCC[C@@]3(CCN(Cc4cccnc4)C3)C2)c1 | 4 | -0.59 | – | –
14 | CCOc1ccc(NC(=O)Nc2nc3c(s2)CN(S(=O)(=O)c2ccc(OC)cc2)CC3)cc1 | -14 | 1.31 | – | –
15 | O=C(c1ccc(=O)[nH]c1)N1CCC[C@H](Oc2cnccn2)C1 | -2 | 0.36 | – | –
16 | CC(C)(C)c1cc(NCc2nnc3ccc(Cl)cn23)ncn1 | -17 | 2.29 | – | –
17 | COc1cccc(C(=O)N2C(C(=O)NCC3CCCO3)COC23CCN(C(=O)c2ccccc2F)CC3)c1 (stereo unspecified) | -2 | 0.3 | – | –
18 | O[C@H]1CCCN(c2ncccc2CNc2cnc3ccccc3n2)C1 | 3 | -0.25 | – | –
19 | CN1CCC(CNC(=O)Nc2ccccc2N2CC3CCC2C3)CC1 (stereo unspecified) | -10 | 1.41 | – | –
20 | O=C(O)c1cccc(NC(=O)c2nc(-n3cnnc3)ccc2Br)c1 | -8 | 1.06 | – | –
21 | O=C(NCCN1CCOC1=O)c1cn(C/C=C/c2ccccc2)nn1 | -13 | 1.67 | – | –

Row | Compound | % Inhibition [%] | Z score | % Inhibition (2 µM) | Z score (2 µM)
22 | Cc1cccc(-c2ccc(C(=O)N3CC(C(N)=O)CCC3C)c(=O)[nH]2)c1 (stereo unspecified) | -17 | 2.18 | – | –
23 | Cc1cc(NC(=O)c2ccc(Cl)c(F)c2)nc(=O)[nH]1 | -4 | 0.38 | – | –
24 | CC(C)[C@@H](C#N)N1CCN(CC(=O)NCc2ccccn2)CC1 | 1 | -0.18 | – | –
25 | c1ccc2c3nc(nc2c1)CCCCCCCCCCCN3 | -4 | 0.57 | – | –
26 | O=C(Nc1cccc(F)c1)c1nnc(CCCC(=O)N2CCCCC2)s1 | -11 | 1.61 | – | –
27 | CC(=O)c1cc(CN(C)CCc2c(C)n[nH]c2C)n(C)c1 | -14 | 1.57 | – | –
28 | C[C@@H](Cn1cccn1)C(=O)N1CCc2c(Cl)cccc2C1 | -14 | 1.46 | – | –
29 | COc1cc(OC)cc(-n2ccc(=O)c(Cc3c(Cl)cccc3Cl)c2C)c1 | 0 | 0.07 | – | –
30 | O=C(Nc1cc(Cl)cc(Cl)c1)N1CCN(Cc2nnc3n2CCCCC3)CC1 | -8 | 1.08 | – | –
31 | COc1ccc2c(NC3CCC(C(=O)O)CC3)ncnc2c1F (stereo unspecified) | 12 | -1.54 | – | –
32 | CCCc1nccn1Cc1ccc(-n2ccnc2)cc1 | -9 | 1.14 | – | –
33 | CC(C)CNC(=O)c1nn(-c2ccccc2)c2ccccc2c1=O | -10 | 1.32 | – | –
34 | COCC1CCN(C(=O)[C@@H]2CCCn3c(-c4ccccc4)cnc32)CC1 | -14 | 2.02 | – | –
35 | COc1ccc(S(=O)(=O)Nc2ccc(N(C)C)c(CN(CC(C)C)C(=O)CC(C)(C)C)c2)cc1 | -2 | 0.3 | – | –
36 | CC(C)n1cnc(C(=O)N2CC3(CCC3)C3COCC32)c1 (stereo unspecified) | -3 | 0.62 | – | –
37 | CCc1ccc([C@@H]2CN(C(=O)c3cscn3)CCN2)cc1 | -4 | 0.61 | – | –
38 | CC(=O)Nc1nc(C(=O)N2CCc3[nH]ncc3C2)cs1 | -7 | 1.12 | – | –
39 | CC1CC(O)(/C=C/C2(O)CCCCC2)C(C)CN1C (stereo unspecified) | -12 | 1.36 | – | –
40 | O=C(CC1CCCC1)NCCCOC[C@H]1CCCO1 | 5 | -0.7 | – | –
41 | COc1ccc(-c2ccc(N3CCCN(C(=O)CN(Cc4ccco4)C(=O)c4ccc(Cl)cc4Cl)CC3)nn2)cc1OC | -19 | 2.77 | – | –
42 | O=C(CCn1cnnn1)N1CCc2[nH]c3ccc(F)cc3c2C1 | -1 | 0.14 | – | –

Row | Compound | % Inhibition [%] | Z score | % Inhibition (2 µM) | Z score (2 µM)
43 | C=C(C)CC(C)C(=O)N1CCCCC1C(C)CN(C)C (stereo unspecified) | -12 | 1.48 | – | –
44 | CC(=O)N1CCN(C(=O)NCc2cc(F)ccc2C)C[C@@H](O)C1 | -9 | 0.8 | – | –
45 | CC(NC(=O)C1CCCN(c2nc3ccccc3n2C2CCCC2)C1)c1ccccc1 (stereo unspecified) | -11 | 1.49 | – | –
46 | CC1(C)CCc2nnc(-c3cccnc3)n2C1 | -5 | 0.9 | – | –
47 | CCc1ccc(C(NC(=O)C2CCNC2)C(C)(C)C)o1 (stereo unspecified) | 46 | -5.46 | – | –
48 | Cn1cc(CNC(=O)c2coc(COc3cccc(C(F)(F)F)c3)n2)cn1 | -11 | 1.32 | – | –
49 | CCCOc1ccc(CCNC(=O)N(C)[C@H]2CS(=O)(=O)C[C@@H]2O)cc1 | 3 | -0.53 | – | –
50 | Cc1ccc(S(=O)(=O)NCC(F)(F)CO)o1 | -6 | 0.99 | – | –
51 | CC(C)c1ncc(-c2ccc(C(=O)NCCc3ncnn3C)cc2)s1 | -11 | 1.47 | – | –
52 | O=C(c1cccc2cc[nH]c12)N1CCN(Cc2cccc(-c3noc(-c4cccc(C(F)(F)F)c4)n3)c2)CC1 | 8 | -0.96 | – | –
53 | CC(C)(C)n1nnc(CNC(=O)NC2CC(=O)N3CCCCC23)n1 (stereo unspecified) | -9 | 1.22 | – | –
54 | Cc1cc(NC(=O)COC(=O)[C@H]2CC(=O)N(c3ccccc3)C2)no1 | 9 | -1.06 | – | –
55 | CC(C)N(CC(=O)N(Cc1cccn1Cc1ccccc1Cl)C1CCCCC1)S(=O)(=O)c1ccc2ccccc2c1 | -6 | 0.94 | – | –
56 | Cc1nnsc1CN(C)C(=O)COC[C@H]1CCCCO1 | -13 | 1.63 | – | –
57 | OC[C@@H](c1ccc(Cl)cc1)N1CCN(Cc2nncs2)CC1 | 4 | -0.9 | – | –
58 | O=C(CNS(=O)(=O)c1ccc2ncccc2c1)NC1CCCCC1 | -14 | 1.95 | – | –
59 | O=C(Nc1ccc(F)c(F)c1)c1ccc(-c2c(-c3ccc(F)cc3)ncn2C2CCCC2)o1 | -3 | 0.52 | – | –
60 | CC(=O)N[C@H](C(=O)Nc1cc(F)ccc1C)C(C)C | -18 | 1.53 | – | –
61 | Cc1nc(N2CCOCC2)c2c(C(=O)Nc3cc(Cl)ccc3C)c(C)oc2n1 | 6 | -1.08 | – | –
62 | COc1ccccc1NC(=S)Oc1cccc(C(=O)Nc2ccc3ccccc3c2)c1 | -7 | 1.06 | – | –
63 | Cc1ncc2c(c1-c1noc(-c3ccc4ccccc4n3)n1)CCNC2 | -8 | 1.16 | – | –

Row | Compound | % Inhibition [%] | Z score | % Inhibition (2 µM) | Z score (2 µM)
64 | CCn1nncc1C(=O)Nc1nn(-c2cccnc2)cc1C | -3 | 0.6 | – | –
65 | CCN(CC(=O)Nc1c(F)cccc1F)C(=O)CCOc1ccccc1 | -14 | 2.24 | – | –
66 | CCNC(=O)NC1CN(C(C)c2ncc(C(C)(C)C)o2)C[C@@H]1OC (stereo partly specified) | 6 | -0.86 | – | –
67 | CCC(=O)NCc1nc2c(n1C)CN(C(=O)c1cc(F)cc(F)c1)CC2 | 10 | -1.12 | – | –
68 | Cc1cc(=O)c(CO)nn1Cc1cc(Cl)c2c(c1)OCCO2 | 11 | -1.39 | – | –
69 | CN(C)c1nc(N)nc(CN2CCC3CCCCC3C2)n1 (stereo unspecified) | 7 | -0.66 | – | –
70 | CC(=O)Nc1cccc(NC(=O)CN2CC[C@@H](C(F)(F)F)C2(C)C)c1 | 3 | -0.42 | – | –
71 | O=C(NCCc1cc(F)cc2c1OCOC2)c1cccc[n+]1[O-] | -50 | 5.85 | – | –
72 | O=C(c1cccc(Cl)c1)[C@H]1CCCN(C(=O)c2ccn(C(F)F)n2)C1 | -1 | 0.25 | – | –
73 | C=CCNC(=O)CN1C(=O)N[C@@H](C(C)C)C1=O | -4 | 0.86 | – | –
74 | CCOc1ccc(-n2ccc(=O)c(C(=O)Nc3ccc(S(=O)(=O)N4CCC(C)CC4)cc3)n2)cc1 | -5 | 0.92 | – | –
75 | COCCN1C(=O)[C@@H]2C[C@@H](CN2Cc2nccn2C)Oc2ccccc21 | 0 | 0 | – | –
76 | O=C1CCCC[C@@H](C(=O)Nc2ccc(-c3nncs3)cc2)N1 | -3 | 0.5 | – | –
77 | Cc1onc(-c2ccccn2)c1C(=O)Nc1ncc(C2CCNCC2)s1 | -10 | 1.49 | – | –
78 | COc1ccccc1CNCC1CCOC1c1c(C)nn(C)c1C (stereo unspecified) | -9 | 0.99 | – | –
79 | Cc1ccc(NC(=O)NC(Cc2ccc3c(c2)OCO3)Cc2ccc3c(c2)OCO3)cc1 | -8 | 1.53 | – | –
80 | Fc1ccc(-n2nc(C3CCOCC3)nc2-c2cn[nH]c2)c(F)c1 | 6 | -0.9 | – | –
81 | C/N=C1/c2cc3ccccc3n2CCN1C | – | – | -13% and -9% | 1.7 and 0.84
82 | O=C(Cn1cncn1)N1CC[C@@]2(CCCN(Cc3ccc(F)c(F)c3)C2)C1 | -13 | 1.39 | – | –
83 | Cc1cc(C)n([C@@H](CNC(=O)CN2C(=O)CCC2=O)c2ccsc2)n1 | 17 | -2.36 | – | –

Source: ChEMBL document CHEMBL4888484, “Replenishing the malaria drug discovery pipeline: Screening and hit evaluation of the MMV Hit Generation Library 1 (HGL1) against asexual blood stage Plasmodium falciparum ,using a nano luciferase reporter read-out” (2022)
